Among all 45,000 compounds or so, about 65 (0.1%) were called active. Calls come from the whole dose curve; as a rule, active = well fitted activation curve with a large enough effect; inconclusive = small, poorly fitted or top-dose-only effect; inactive = no such curve, though single readings can be large or run the other way. Some of the results follow.
What follows are compounds tested against Galactocerebrosidase (Homo sapiens) (UniProt P54803) (assay: A Novel Cell-Based Assay to Identify Small Molecules for B -Galactocerebrosidase). Settings: 145M-Twi-hGALC-G270D cells (Twitcher mouse brain line with human GALC G270D), HMU-beta-Gal fluorescence, 48 h; series mostly up to 57.5 µM; activation: at the top concentration.
UniProt P54803, sequence (P54803 whole entry, looked up): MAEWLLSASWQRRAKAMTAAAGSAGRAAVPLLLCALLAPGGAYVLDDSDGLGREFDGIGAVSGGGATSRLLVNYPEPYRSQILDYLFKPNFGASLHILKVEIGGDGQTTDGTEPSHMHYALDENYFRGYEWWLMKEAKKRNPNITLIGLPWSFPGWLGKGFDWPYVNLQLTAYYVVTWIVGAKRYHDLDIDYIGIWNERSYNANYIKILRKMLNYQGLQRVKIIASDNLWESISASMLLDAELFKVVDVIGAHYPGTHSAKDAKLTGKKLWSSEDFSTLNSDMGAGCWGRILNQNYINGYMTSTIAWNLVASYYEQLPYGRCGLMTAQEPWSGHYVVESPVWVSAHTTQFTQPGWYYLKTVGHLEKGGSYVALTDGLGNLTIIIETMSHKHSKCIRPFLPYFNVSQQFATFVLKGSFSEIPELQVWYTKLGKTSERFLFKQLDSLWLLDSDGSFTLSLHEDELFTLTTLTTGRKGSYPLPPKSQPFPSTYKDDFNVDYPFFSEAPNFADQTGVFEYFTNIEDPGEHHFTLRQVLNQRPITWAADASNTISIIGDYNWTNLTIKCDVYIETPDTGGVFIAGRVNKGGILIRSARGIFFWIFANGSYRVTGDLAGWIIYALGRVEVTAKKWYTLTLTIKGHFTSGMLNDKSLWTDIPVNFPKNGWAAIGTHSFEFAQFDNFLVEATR
Method in brief: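 Mutant human GALC (G270D), stably expressed in a Twitcher mouse brain cell line lacking endogenous GALC, is measured in live-treated cells via 6-hexadecanoylamino-4-methylumbelliferyl-β-galactoside hydrolysis (0.1 mM final, pH 5.2) with fluorescent detection.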
Note: 0% is about no effect; nearly all actives have a fitted effect of over 65% in size.

activation, inactive:
Cc1ccc(C)c(Cn2nc(C)n3c(cc4cc(C)ccc43)c2=O)c1 -4.52%
COC(=O)c1ccc(OCC2c3cc(OC)c(OC)cc3CCN2C(=O)c2ccccc2F)cc1 (configuration not stated) -20.7%
CC(Nc1ccc(-c2nc(-c3ccccn3)no2)cc1[N+](=O)[O-])c1ccccc1 (configuration not stated) -10.3%
Cc1ccc(CNC(=O)c2c(-c3cccc(Br)c3)noc2C)o1 -6.83%
CCCCCn1c(=N)n(CC(O)COc2cccc(C)c2)c2ccccc21 (configuration not stated) -15.8%
CC(C)c1nn2c(=O)cc(COC(=O)CNC(=O)c3ccccc3)nc2s1 -1.97%
COc1ccc(NC(=O)Cc2csc(COc3cccc(C)c3)n2)c(OC)c1 -2.36%
OCCc1ccccc1 -16.2%
CCc1ccc(NC(=O)C(=O)NCC(c2cccnc2)N2CCOCC2)cc1 (configuration not stated) -22.6%
Cc1cccc(C(=O)Nc2cccc(OCc3cc(=O)n4c(C)csc4n3)c2)c1 -13.3%
O=C(c1ccc(F)cc1)C1CCN(CCn2c(=S)[nH]c3ccccc3c2=O)CC1 -13.1%
CCc1ccc(NC(=O)c2cc3c(=O)n(Cc4cccnc4)ccc3nc2C)cc1 -9.37%
O=C(O)c1ccccc1Nc1cccc(C(F)(F)F)c1 -7.48%
CCn1cc(C(=O)N(C)Cc2ccccc2)c(=O)c2cc(S(=O)(=O)N3CCCCCC3)ccc21 -1.88%
COc1ccc(OCC(=O)NCCS(=O)(=O)N2CCN(c3cccc(Cl)c3)CC2)cc1 -7.1%
COc1ccc(-c2noc(CCC(=O)NCc3ccc(OC)cc3OC)n2)cc1 -34.9%
CCC(=O)N1CCc2cc(S(=O)(=O)CCC(=O)NCc3ccccc3Cl)ccc21 -8.54%
CCCc1nn2c(=O)cc(COC(=O)c3ccccc3NC(=O)C3CCCCC3)nc2s1 -7.46%
CCC(=O)O[C@]1(C(=O)SCF)[C@H](C)C[C@H]2[C@@H]3C[C@H](F)C4=CC(=O)C=C[C@]4(C)[C@@]3(F)[C@@H](O)C[C@@]21C -16.9%
COC(=O)c1c(C)sc(-c2c(-c3ccc(F)cc3)[nH]c3[nH]c(=O)[nH]c(=O)c23)c1O -2.02%
Cc1ccc(NC(=O)C2CCN(S(=O)(=O)c3cccs3)CC2)cc1 -11.4%
COc1ccc(C(=O)NCC(c2cccnc2)N2CCN(c3ccccc3F)CC2)cc1OC (configuration not stated) -14.2%
CC1=C(C(=O)OC2CCCCCC2)C(c2ccccc2Cl)CC(=O)N1 (configuration not stated) -15.3%
COCCCNC(=O)N1CCN(c2nnc(C)c3c(C)n(-c4ccc(Cl)cc4)nc23)CC1 -14.8%
CCc1ccc(NC(=O)CN(c2ccc(C)cc2)S(=O)(=O)c2c(C)nn(C)c2C)cc1 -9.75%
Cc1ccc(-n2c(SCc3nc(-c4ccc(Cl)cc4)no3)nnc2-c2ccncc2)cc1 -4.57%
COc1ccc(CCNC(=O)CCc2c(C)nc3c(-c4ccc(F)cc4)c(C)nn3c2C)cc1OC -13.5%
COc1cccc(CNCCCSc2nnnn2C)c1 -13.9%
COc1ccc(-c2c(C)nn3c(C(F)(F)F)cc(C)nc23)cc1OC -12%
Cc1oc2ncn(C)c(=O)c2c1C(=O)N1CCN(c2ccc(Cl)cc2)CC1 -1.15%
Cc1ccccc1CN1C(=O)c2ccccc2S(=O)c2ccc(C(=O)NCc3ccccc3)cc21 (configuration not stated) -8.82%
CCOc1cccc(CC(=O)N2CCc3c([nH]c4ccccc34)C2c2ccc(OC)cc2)c1OCC (configuration not stated) -14.1%
COc1ccc(Cn2c(C(=O)O)c(CNCCc3cccs3)c3ccc(OC)cc32)cc1 -7.27%
O=C1c2oc3ccccc3c(=O)c2C(c2cccc(O)c2)N1Cc1ccc(F)cc1 (configuration not stated) -16.5%
CCOc1ccc(N(CC(=O)Nc2ccc3c(c2)OCO3)S(=O)(=O)c2ccccc2)cc1 -21.2%
CC(C)Sc1ncc(Cl)c(C(=O)Nc2c(C(=O)Nc3ccccc3)oc3ccccc23)n1 -17.4%
Cc1ccccc1Nc1c(-c2ccccc2O)nc2sccn12 -23.6%
Cc1nn(C)c2c1c(-c1ccccc1)cc(=O)n2Cc1c(F)cccc1Cl 6.05%
O=C(c1cc(-c2ccc(Cl)cc2)on1)N(Cc1ccc(F)cc1)Cc1ccco1 -13.8%
COc1cc(C2C(C(=O)Nc3ccc(C)cc3C)=C(C)Nc3nc(SCc4ccccc4)nn32)cc(OC)c1OC (configuration not stated) -14.5%
O=C1CN(C(=O)c2ccc(S(=O)(=O)N3CCCC3)cc2)C(c2ccc(F)cc2)c2cc(F)ccc2N1 (configuration not stated) -22.3%
CCc1ccc(NS(=O)(=O)c2ccc3[nH]cc(C(=O)N4CCCCCC4)c(=O)c3c2)cc1 -9.79%
CCc1cccc(NC(=O)c2sc3nc[nH]c(=O)c3c2C)c1 -15.1%
COc1ccc(N(C(=O)c2ccc(C)cc2)S(=O)(=O)c2ccc(Cl)cc2)cc1 -1.95%
CCOC(=O)Cc1ccc(NC(=O)N2CCC(CN3CCC(C)CC3)CC2)cc1 -13.9%
CCN(c1ccccc1)S(=O)(=O)c1nnc(NC(=O)C(C)Oc2ccccc2)s1 (configuration not stated) -12.2%
CCOc1ccc(CCNC(=O)c2ccc(C)c(-n3c(C)nc4cccnc43)c2)cc1OCC -11%
Cc1cccc(-c2nnc(SCC(=O)NC3CCCCC3)o2)c1 -14.4%
Cc1ccc(CNC(=O)c2cnn3c(C)c(Cc4c(F)cccc4Cl)c(C)nc23)cc1 14.1%
CCOc1ccc(C(=O)Nc2cc(-c3ccccc3)no2)cc1 -12.8%
Cc1cc(Br)ccc1NC(=O)CN1C(=O)c2cccnc2Sc2ccccc21 -5.48%
COc1ccc(N(Cc2cccs2)C(=O)COc2ccc([N+](=O)[O-])cc2)cc1 -2.15%
CCOc1ccccc1NC(=O)c1cc2ccc3cccnc3c2[nH]1 0.77%
CCN(Cc1ccccc1)C(=O)c1cc2ccc3cccnc3c2[nH]1 -11%
CCOC(=O)c1ccc(NC(=O)CSc2nc(C)c(Cc3ccccc3)c(=O)[nH]2)cc1 -16%
Cc1ccc(-c2ccc(=O)n(CC(=O)Nc3ccc(C(C)C)cc3)n2)cc1 -6.45%
C=CCOc1ccc(C2c3c(oc4ccc(C)cc4c3=O)C(=O)N2CCCN2CCOCC2)cc1 (configuration not stated) 10.4%
Cc1ccc(Cn2ccn(Cc3cccc(C(F)(F)F)c3)c(=O)c2=O)cc1 -17.6%
COc1cccc(NC(=O)CSc2nc3c([nH]c4ccccc43)c(=O)n2-c2cccc(Cl)c2)c1 -18.1%
O=C(Nc1ccc(F)c(Cl)c1)C1Cc2ccccc2CN1S(=O)(=O)c1ccc(F)cc1 (configuration not stated) -4.67%
CCc1nn(CC(=O)Nc2ccc(C)cc2C)c(=O)c2cc3sccc3n12 -20.9%
COCCNC(=O)CCn1c(=O)c2cc(OC)c(OC)cc2n(CC(=O)Nc2ccccc2OC)c1=O 6.32%
COc1ccccc1NC(=O)c1c(C)cc(C)nc1SCC(=O)Nc1cccc(C)c1 -14.7%
CCN(CC)CCOC(=O)c1ccc(NC(=O)CSc2cc(=O)n(CC)c3ccccc23)cc1 -18.4%
CCc1cccc(CC)c1N(COC)C(=O)Cn1c(C)nc2ccccc21 -21.5%
Cc1ccc(-n2nc(C)c3c(C)cc(=O)n(CC(=O)NC(C)C)c32)cc1 -15.7%
CCCCn1c(SCC(=O)Nc2cccc(OC)c2)nc2ccsc2c1=O 2.47%
Cc1ccc(NC(=O)c2cn(-c3ccccc3)nc2-c2ccccc2)cc1 -35.1%
COc1ccc(-n2cc(-c3ccccc3)c3c(NCc4cccc(Cl)c4)ncnc32)cc1 -6.18%
COc1cc(OC)c(NC(=O)c2cnn(-c3cccc(Cl)c3C)c2C2CCN(C(=O)OC(C)(C)C)CC2)cc1Cl -16.3%
O=C(NCc1ccccc1)c1ccc(NC(=O)N2CCSc3ncccc32)cc1 6.87%
COc1ccc(Nc2ncnc3onc(-c4ccc(Cl)cc4)c23)cc1Cl -9.21%
CCOC(=O)c1c(NC(=O)COc2cccc(C)c2C)sc2c1CCCCC2 -6.18%
CC(C)c1ccc(Nc2c(-c3ccc(N4CCOCC4)cc3)nc3ncccn23)cc1 0.248%
COc1ccc(NC(=O)C2CCC(CNS(=O)(=O)c3csc(C(N)=O)c3)CC2)cc1 (configuration not stated) -3.17%
COc1ccc(-c2cn3nc(N4CCC(C(=O)NCc5ccc(F)cc5)CC4)sc3n2)cc1 -4.59%
Cc1ccc(C2=NN(CC(=O)NC(C)c3ccccc3)C(=O)CC2)cc1 (configuration not stated) 0.391%
CCOC(=O)CNC(=O)c1cc2c(=O)n(CC)c3ccccc3c2s1 1.61%
CCCOC(=O)c1ccc(NC(=O)Cn2nnc3sc4c(c3c2=O)CCC(C(C)(C)C)C4)cc1 (configuration not stated) -0.736%
Cc1ccc(CNC(=O)CSc2ccc(-c3sc(-c4ccccc4)nc3C)nn2)cc1 -4.22%
COC(=O)c1cc2sc(C)cc2n1Cc1ccccc1 -24.2%
COc1ccc(-c2onc(C)c2C)cc1S(=O)(=O)Nc1ccc(OC(F)(F)F)cc1 5.9%
CCOC(=O)c1cccc(NC(=O)c2cc(S(=O)(=O)N3CCCC3)cn2C)c1 3.83%
Cc1ccc(CSc2oc(-c3ccco3)nc2S(=O)(=O)c2ccc(Cl)cc2)cc1 -0.281%
CCCOc1ccc(-c2cccc(NS(=O)(=O)c3cccs3)c2)nn1 -7.59%
O=C(Nc1cccc(C(F)(F)F)c1)c1cc2nc(-c3ccccc3)cc(C(F)(F)F)n2n1 -1.99%
O=S(=O)(c1ccc(Br)cc1)c1nc(-c2ccco2)oc1SCc1ccccc1F -27.3%
CC(=O)c1cc(-c2ccc(F)cc2)n(CC(=O)NC2CCCCCC2)c1C -17.3%
CCCOc1ccc(/C=C/C(=O)Nc2sc3c(c2C(=O)OCC)CCC(C)C3)cc1OC (configuration not stated) -16.7%
COc1ccc(NC(=O)c2ccco2)cc1NC(=O)C(C)Oc1ccc(Cl)cc1Cl (configuration not stated) -14.7%
CCOc1ccc(CCNC(=O)CN2C(=O)c3cccnc3Oc3ccc(C)cc32)cc1OCC -7.19%
Clc1ccc(N2CCN(Cc3nnc(-c4ccc5c(c4)OCO5)o3)CC2)cc1 -14.1%
CN(C)CCOC(=O)C(c1ccccc1)C1(O)CCCC1 (configuration not stated) -13.3%
COc1ccc(-c2cccc(NS(=O)(=O)c3cccs3)c2)nn1 -10.5%
CCOc1ccccc1CNC(=O)CCCn1c(=O)c2cccn2c2cccnc21 4.95%
Cc1ccc2oc(-c3cccc(NC(=O)c4cccc5c(Br)cccc45)c3)nc2c1 -17.3%
O=C(CCCn1c(=O)c2cccn2c2ccccc21)Nc1cccc(Cl)c1 -18.8%

From PubChem BioAssay AID1159614 (National Center for Advancing Translational Sciences (NCATS), 2016)
